Source: patent US11524046B2, “Biofilm prevention, disruption and treatment with bacteriophage lysin” (priority 2012, dated 2022)

Tested on: MRSA biofilms grown on catheters (strain ATCC BAA-42)
Assay: Catheter biofilm eradication in vitro, methylene blue staining
Details: concentrations as high as 5000×MIC (5 mg/ml)

`CCCCCCCCCC(=O)N[C@@H](Cc1c[nH]c2ccccc12)C(=O)N[C@H](CC(N)=O)C(=O)N[C@@H](CC(=O)O)C(=O)N[C@@H]1C(=O)NCC(=O)N[C@@H](CCCN)C(=O)N[C@@H](CC(=O)O)C(=O)N[C@H](C)C(=O)N[C@@H](CC(=O)O)C(=O)NCC(=O)N[C@H](CO)C(=O)N[C@@H]([C@H](C)CC(=O)O)C(=O)N[C@@H](CC(=O)c2ccccc2N)C(=O)O[C@@H]1C` [Daptomycin, daptomycin] was tested. Which “biofilm removal from the catheter” value did it give?
The value was “did not remove the biofilm”.
